# Reference: PubChem BioAssay AID489012 (National Center for Advancing Translational Sciences (NCATS), 2010)
# Inconclusive means that the source gave no clear call. Such entries were picked first, then a sample of the others. Potencies beside an inconclusive call are fits to weak or partial responses and may not hold up. Activity calls are given as the source filed them. Calls follow the shape of the dose curve; as a rule, active = well fitted activation curve with a large enough effect; inconclusive = small, poorly fitted or top-dose-only effect; inactive = no such curve, though single readings can be large or run the other way.
# Target: Relaxin receptor 1 (Homo sapiens) (UniProt Q9HBX9)
# UniProt Q9HBX9, sequence (Q9HBX9 whole entry, looked up): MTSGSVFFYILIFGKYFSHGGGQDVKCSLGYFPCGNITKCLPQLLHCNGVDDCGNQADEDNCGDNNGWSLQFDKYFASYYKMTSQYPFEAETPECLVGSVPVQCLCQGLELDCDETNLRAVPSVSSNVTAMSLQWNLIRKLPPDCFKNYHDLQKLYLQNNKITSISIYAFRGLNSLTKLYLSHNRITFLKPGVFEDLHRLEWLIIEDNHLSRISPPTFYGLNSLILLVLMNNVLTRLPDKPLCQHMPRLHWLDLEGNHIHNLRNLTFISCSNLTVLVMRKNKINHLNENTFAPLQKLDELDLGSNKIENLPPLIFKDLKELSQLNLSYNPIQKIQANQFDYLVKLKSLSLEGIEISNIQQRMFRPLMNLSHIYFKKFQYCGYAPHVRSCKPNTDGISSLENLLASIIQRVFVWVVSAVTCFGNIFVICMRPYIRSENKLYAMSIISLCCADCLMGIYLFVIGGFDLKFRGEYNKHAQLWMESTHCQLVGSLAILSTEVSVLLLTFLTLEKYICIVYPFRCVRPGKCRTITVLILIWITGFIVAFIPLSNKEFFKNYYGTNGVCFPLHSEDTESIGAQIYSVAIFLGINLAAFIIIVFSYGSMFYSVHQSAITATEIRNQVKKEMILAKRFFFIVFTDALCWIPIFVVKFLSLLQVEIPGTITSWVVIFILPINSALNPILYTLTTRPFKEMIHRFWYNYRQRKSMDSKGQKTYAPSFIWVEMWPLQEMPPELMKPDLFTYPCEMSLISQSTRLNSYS
# Experiment: qHTS Assay for Agonists of the Relaxin Receptor RXFP1: RXFP1 Hit Validation; also: nearly all actives have a fitted effect of over 65% in size;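 as to activation: cAMP rise lowers the TR-FRET signal in lysed cells with PDE4 inhibitor present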
# Details: HEK293T-RXFP1 cAMP TR-FRET, 30 min; series mostly up to 115 µM
# Potency is read from the fitted curve at half-maximal effect; tags tell the direction and shape of the fitted curve.
row,Compound,Potency
1,CCN(CC)S(=O)(=O)c1ccc(N2CCOCC2)c(NC(=O)c2cccc(C#N)c2)c1,"inconclusive: 34.6 µM [activator, partial curve]"
2,COc1ccc(-n2ncc3c(N4CCC(C(N)=O)CC4)ncnc32)cc1,"inconclusive: 27.5 µM [activator, partial curve]"
3,CC1CCCN(C(=O)COC(=O)CNC(=O)c2sc3ccccc3c2Cl)C1 (stereo unspecified),"inconclusive: 17.3 µM [activator, partial curve]"
4,O=C(O)CNC(=O)c1ccccc1NC(=O)c1ccco1,inactive
5,COc1ccc(C(=O)Nc2ccc(Cl)cc2C(=O)NCc2ccco2)cc1,"inconclusive: 29.8 µM [activator, single point]"
6,CCN1CCN(c2nc3c(C)cccn3c(=O)c2/C=C(\C#N)C(=O)NCCOC)CC1,"inconclusive: 43.6 µM [activator, partial curve]"
7,N#Cc1c2n(c3c(N)ncnc13)CCCCC2,"inconclusive: 38.9 µM [activator, partial curve]"
8,C/C(=N\NC(=O)c1c(C)nc2ccccn12)c1ccc(N2CCOCC2)cc1,"inconclusive: 30.9 µM [activator, partial curve]"
9,C=CCNC(=O)NC(=O)COC(=O)c1nc2nccc(C)n2n1,"inconclusive: 34.6 µM [activator, partial curve]"
10,Cc1ccnc(NS(=O)(=O)c2ccc(N3C(=O)c4ccccc4C3=O)cc2)n1,active: 18.8 µM
11,Cn1c(=O)c2sccc2n2c(CCCC(=O)NCc3cccnc3)nnc12,"inconclusive: 21.8 µM [activator, partial curve]"
12,COc1ccc(CCn2c(=N)c(C(=O)NCC3CCCO3)cc3c(=O)n4cccc(C)c4nc32)cc1 (stereo unspecified),inactive
13,Cn1c(=O)c2sccc2n2c(CCCC(=O)N3CCCCC3)nnc12,"inconclusive: 21.9 µM [activator, full curve]"
14,Cc1cc(C)n(C(=O)CCCn2cc([N+](=O)[O-])cn2)n1,inactive
15,Cc1nnc(Nc2ccc(S(N)(=O)=O)cc2)c2ccccc12,"inconclusive: 34.6 µM [activator, partial curve]"
16,CC(=O)Nc1cccc(NC(=O)CSc2nc3c(c(=O)n(C)c(=O)n3C)n2C)c1,"inconclusive: 34.6 µM [activator, partial curve]"
17,O=C(Nc1cccc(C(F)(F)F)c1)c1ccccc1NC(=O)C1CCCCC1,active: 11.9 µM
18,CCCCn1c(=O)[nH]c(=O)c2c1nc(Cn1ncc(Cl)c(Cl)c1=O)n2CCC,"inconclusive: 30.9 µM [activator, partial curve]"
19,O=C(CCCN1C(=O)c2cccnc2C1=O)Nc1ccccc1F,"inconclusive: 69.1 µM [activator, partial curve]"
20,O=C(Nc1ccccc1C(=O)NC1CCCCC1)c1ccco1,inactive
21,CCc1ccc(-c2nc3ccc(Br)cc3c(C(=O)O)c2C)s1,"inconclusive: 4.35 µM [activator, full curve]"
22,CC(NC(=O)c1ccccc1NC(=O)c1ccco1)c1ccccc1 (stereo unspecified),"inconclusive: 46.6 µM [activator, partial curve]"
23,O=C(Nc1ccccc1C(=O)N1CCNCC1)c1ccco1,inactive
24,CC1(C)O[C@@H]2[C@H](O1)[C@@H](COS(=O)(=O)O)O[C@H]2n1cnc2c(N)ncnc21,"inconclusive: 3.08 µM [activator, full curve]"
25,Cn1c2ccccc2c2nnc(SCCN3CCOCC3)nc21,"inconclusive: 34.6 µM [activator, partial curve]"
26,CCc1cc2cc3c(cc2nc1SCC(=O)Nc1nccs1)OCO3,active: 17.3 µM
